Among the data in paper PMC9911399, “Two distinct binding modes provide the RNA-binding protein RbFox with extraordinary sequence specificity” are binding signal values, retold here.

T1: RBFOX1 RRM RbFoxmut (Fox-RRM*) (Homo sapiens, UniProt Q9NWB1 109-208, R118D;E147R;N151S;E152T)
T1 sequence: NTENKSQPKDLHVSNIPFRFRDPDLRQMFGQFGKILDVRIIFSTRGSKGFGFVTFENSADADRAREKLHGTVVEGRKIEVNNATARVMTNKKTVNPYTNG

B1: CCCAUGC (DNA:RNA)
RNA: GGGAGACCGGAAUUCAGAUUGUCCCCCAUGCUUAAAUCCCGUCGUAGCCACCA
DNA 1: CAATCTGAATTCCGGTCTCCC
DNA 2: TGGTGGCTACGACGGGATT
B2: GGUGAUU (DNA:RNA)
RNA: GGGAGACCGGAAUUCAGAUUGUCCGGUGAUUUUAAAUCCCGUCGUAGCCACCA
DNA 1: CAATCTGAATTCCGGTCTCCC
DNA 2: TGGTGGCTACGACGGGATT
B3: GUGACCA (DNA:RNA)
RNA: B1 RNA with C25G, C26U, C27G, U29C, G30C, C31A
DNA 1: CAATCTGAATTCCGGTCTCCC
DNA 2: TGGTGGCTACGACGGGATT
B4: ACGAGUC (DNA:RNA)
RNA: B1 RNA with C25A, C27G, U29G, G30U
DNA 1: CAATCTGAATTCCGGTCTCCC
DNA 2: TGGTGGCTACGACGGGATT
B5: UCUUCCU (DNA:RNA)
RNA: B2 RNA with G25U, G26C, G28U, A29C, U30C
DNA 1: CAATCTGAATTCCGGTCTCCC
DNA 2: TGGTGGCTACGACGGGATT
B6: GGUUAAC (DNA:RNA)
RNA: B2 RNA with G28U, U30A, U31C
DNA 1: CAATCTGAATTCCGGTCTCCC
DNA 2: TGGTGGCTACGACGGGATT
B7: ACCCGAC (DNA:RNA)
RNA: B1 RNA with C25A, A28C, U29G, G30A
DNA 1: CAATCTGAATTCCGGTCTCCC
DNA 2: TGGTGGCTACGACGGGATT
B8: UAACCCU (DNA:RNA)
RNA: B2 RNA with G25U, G26A, U27A, G28C, A29C, U30C
DNA 1: CAATCTGAATTCCGGTCTCCC
DNA 2: TGGTGGCTACGACGGGATT
B9: ACUGUGU (DNA:RNA)
RNA: B1 RNA with C25A, C27U, A28G, C31U
DNA 1: CAATCTGAATTCCGGTCTCCC
DNA 2: TGGTGGCTACGACGGGATT
B10: AGGAGGA (DNA:RNA)
RNA: B1 RNA with C25A, C26G, C27G, U29G, C31A
DNA 1: CAATCTGAATTCCGGTCTCCC
DNA 2: TGGTGGCTACGACGGGATT
B11: GUGCAAC (DNA:RNA)
RNA: B2 RNA with G26U, U27G, G28C, U30A, U31C
DNA 1: CAATCTGAATTCCGGTCTCCC
DNA 2: TGGTGGCTACGACGGGATT
B12: CUAUGAG (DNA:RNA)
RNA: B1 RNA with C26U, C27A, A28U, U29G, G30A, C31G
DNA 1: CAATCTGAATTCCGGTCTCCC
DNA 2: TGGTGGCTACGACGGGATT
B13: GGUGUGA (DNA:RNA)
RNA: B2 RNA with A29U, U30G, U31A
DNA 1: CAATCTGAATTCCGGTCTCCC
DNA 2: TGGTGGCTACGACGGGATT
B14: CAGGUCG (DNA:RNA)
RNA: B1 RNA with C26A, C27G, A28G, G30C, C31G
DNA 1: CAATCTGAATTCCGGTCTCCC
DNA 2: TGGTGGCTACGACGGGATT
B15: CUGGCGC (DNA:RNA)
RNA: B1 RNA with C26U, C27G, A28G, U29C
DNA 1: CAATCTGAATTCCGGTCTCCC
DNA 2: TGGTGGCTACGACGGGATT
B16: AGCCCGU (DNA:RNA)
RNA: B1 RNA with C25A, C26G, A28C, U29C, C31U
DNA 1: CAATCTGAATTCCGGTCTCCC
DNA 2: TGGTGGCTACGACGGGATT
B17: UCUGAGU (DNA:RNA)
RNA: B2 RNA with G25U, G26C, U30G
DNA 1: CAATCTGAATTCCGGTCTCCC
DNA 2: TGGTGGCTACGACGGGATT
B18: UCAAUGA (DNA:RNA)
RNA: B1 RNA with C25U, C27A, C31A
DNA 1: CAATCTGAATTCCGGTCTCCC
DNA 2: TGGTGGCTACGACGGGATT
B19: CCGUAAU (DNA:RNA)
RNA: B1 RNA with C27G, A28U, U29A, G30A, C31U
DNA 1: CAATCTGAATTCCGGTCTCCC
DNA 2: TGGTGGCTACGACGGGATT
B20: ACCGAGU (DNA:RNA)
RNA: B1 RNA with C25A, A28G, U29A, C31U
DNA 1: CAATCTGAATTCCGGTCTCCC
DNA 2: TGGTGGCTACGACGGGATT
B21: UUAGAUU (DNA:RNA)
RNA: B2 RNA with G25U, G26U, U27A
DNA 1: CAATCTGAATTCCGGTCTCCC
DNA 2: TGGTGGCTACGACGGGATT
B22: GUUGCCU (DNA:RNA)
RNA: B2 RNA with G26U, A29C, U30C
DNA 1: CAATCTGAATTCCGGTCTCCC
DNA 2: TGGTGGCTACGACGGGATT
B23: GUACGUG (DNA:RNA)
RNA: B2 RNA with G26U, U27A, G28C, A29G, U31G
DNA 1: CAATCTGAATTCCGGTCTCCC
DNA 2: TGGTGGCTACGACGGGATT
B24: GCAUUGC (DNA:RNA)
RNA: B1 RNA with C25G, C27A, A28U
DNA 1: CAATCTGAATTCCGGTCTCCC
DNA 2: TGGTGGCTACGACGGGATT
B25: UUAAUCU (DNA:RNA)
RNA: B1 RNA with C25U, C26U, C27A, G30C, C31U
DNA 1: CAATCTGAATTCCGGTCTCCC
DNA 2: TGGTGGCTACGACGGGATT
B26: ACUAUAA (DNA:RNA)
RNA: B1 RNA with C25A, C27U, G30A, C31A
DNA 1: CAATCTGAATTCCGGTCTCCC
DNA 2: TGGTGGCTACGACGGGATT
B27: AACUACG (DNA:RNA)
RNA: B1 RNA with C25A, C26A, A28U, U29A, G30C, C31G
DNA 1: CAATCTGAATTCCGGTCTCCC
DNA 2: TGGTGGCTACGACGGGATT
B28: AGAUCAC (DNA:RNA)
RNA: B1 RNA with C25A, C26G, C27A, A28U, U29C, G30A
DNA 1: CAATCTGAATTCCGGTCTCCC
DNA 2: TGGTGGCTACGACGGGATT
B29: UAGCCGU (DNA:RNA)
RNA: B1 RNA with C25U, C26A, C27G, A28C, U29C, C31U
DNA 1: CAATCTGAATTCCGGTCTCCC
DNA 2: TGGTGGCTACGACGGGATT
B30: UGAUCCU (DNA:RNA)
RNA: B2 RNA with G25U, U27A, G28U, A29C, U30C
DNA 1: CAATCTGAATTCCGGTCTCCC
DNA 2: TGGTGGCTACGACGGGATT
B31: UACGUAC (DNA:RNA)
RNA: B1 RNA with C25U, C26A, A28G, G30A
DNA 1: CAATCTGAATTCCGGTCTCCC
DNA 2: TGGTGGCTACGACGGGATT

Where a chain is given by its changes, count along the chain named. This is one part of the list.

This assay concerns the target T1, RBFOX1 RRM RbFoxmut (Fox-RRM*). Kind of assay: EMSA; HiTS-Eq, 1 nM pool, 10 min; buffer printed only for the single-RNA assays: 10 mM Tris pH 7.5, 150 mM NaCl, 3.4 mM EDTA, 0.001% NP-40, 30 C. The following applies: tags: His6 N-terminal (pET28a); label: 5' 32P. The procedure, abridged:
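A pool of RNA with 7 randomized nucleotides, 5′-radiolabelled and with DNA-annealed flanks, was equilibrated at 1 nM for 10 min in 50 µL with purified RbFox RRM, wild type or mutant, across increasing protein concentrations. Free RNA was separated by 8% native PAGE, excised, reverse-transcribed, barcoded by PCR and sequenced. Relative association constants were obtained from read-count changes of each RNA species versus the control reaction and normalised to the cognate motif.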
A general note: A gel shift assay detects complexes by their altered migration in electrophoresis.
With B1, the binding signal was 0.0771 KA relative to UGCAUGU.
On to B2, for which the binding signal was 0.0776 KA relative to UGCAUGU.
For B3, the binding signal is 0.0788 KA relative to UGCAUGU.
The same measure for B4: 0.117 KA relative to UGCAUGU; for B5: 0.0569 KA relative to UGCAUGU; for B6: 0.0607 KA relative to UGCAUGU.
Turning to B7, the binding signal was 0.063 KA relative to UGCAUGU.
Take B8: the binding signal is 0.102 KA relative to UGCAUGU.
Regarding B9, the binding signal was 0.165 KA relative to UGCAUGU.
On to B10, for which the binding signal was 0.084 KA relative to UGCAUGU.
With B11, the binding signal was 0.073 KA relative to UGCAUGU.
In the case of B12, the binding signal is 0.107 KA relative to UGCAUGU.
Turning to B13, the binding signal was 0.112 KA relative to UGCAUGU.
Turning to B14, the binding signal was 0.135 KA relative to UGCAUGU.
As for B15, the binding signal was 0.095 KA relative to UGCAUGU.
With B16, the binding signal is 0.111 KA relative to UGCAUGU.
Regarding B17, the binding signal is 0.0662 KA relative to UGCAUGU.
As for B18, the binding signal is 0.0906 KA relative to UGCAUGU.
In the case of B19, the binding signal was 0.0896 KA relative to UGCAUGU.
Take B20: the binding signal was 0.0972 KA relative to UGCAUGU.
On to B21, for which the binding signal is 0.0873 KA relative to UGCAUGU.
Under B22 stands 0.0842 KA relative to UGCAUGU; under B23, 0.188 KA relative to UGCAUGU.
The same measure for B24: 0.134 KA relative to UGCAUGU; for B25: 0.062 KA relative to UGCAUGU.
Consider B26, for which the binding signal was 0.13 KA relative to UGCAUGU.
As for B27, the binding signal is 0.107 KA relative to UGCAUGU.
Consider B28, for which the binding signal is 0.0603 KA relative to UGCAUGU.
For B29, the binding signal is 0.123 KA relative to UGCAUGU.
For the molecule B30, the binding signal is 0.0524 KA relative to UGCAUGU.
Under B31 stands 0.0929 KA relative to UGCAUGU.
